According to PubChem BioAssay (Tox21):
Several values for one entry are separate records, joined by “and”; a condition that tells them apart may be missing. Equal entries are not always repeated. This list was built around the results that the source calls inconclusive (neither active nor inactive); the mix of calls is not that of the screen. For some assays here: Where the call is inconclusive, the potency comes from a doubtful curve fit. More than one record can exist for a structure, and the calls need not agree. Activity calls are given as the source filed them. Unless noted, calls follow the shape of the dose curve; as a rule, active = well fitted curve in the direction sought with a large enough effect in the repeat runs; inconclusive = weak or mixed curves; inactive = no such curve, though single readings can be large; an effect the other way counts as inactive or inconclusive.

Assays:
[1] = molecular target: Peroxisome proliferator-activated receptor gamma (Homo sapiens) (UniProt P37231); assay: qHTS assay to identify small molecule antagonists of the peroxisome proliferator-activated receptor gamma (PPARg) signaling pathway (AID 743191; calls by dose curve; also: nearly all actives have a fitted effect of over 30% in size; also: potency is read from the fitted curve at half-maximal effect; as to ratio activity, negative = inhibition: % is scaled to controls: 0 for no effect and ±100 for the full control effect); conditions: HEK293H PPARg-UAS-bla, beta-lactamase ratio, antagonist, 17 h; ratio activity, negative = inhibition: at 62.6 µM (top of the series) unless noted
How it was run: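 GeneBLAzer PPARg UAS-bla HEK293H cells carrying a UAS-driven beta-lactamase reporter were plated at 3000 cells/well, preincubated 5 h at 37C, then given compound for 17 h at 37C; LiveBLAzer B/G FRET substrate was read after 1 h at room temperature.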

[2] = qHTS assay to identify small molecule antagonists of the peroxisome proliferator-activated receptor gamma (PPARg) signaling pathway - cell viability counter screen (AID 743194); conditions: PPARg-bla HEK293H viability, CellTiter-Glo luminescence, 17 h, co-treated with 50 nM rosiglitazone; activity change, negative = cytotoxicity: at 62.6 µM (top of the series) unless noted; also: nearly all actives have a fitted effect of over 55% in size; also: potency is read from the fitted curve at half-maximal effect; as to activity change, negative = cytotoxicity: % is scaled to controls: 0 for no effect and ±100 for the full control effect
How it was run: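 PPARg-UAS-bla HEK293H cells were plated, rested 5 h at 37 C, then treated with compounds plus rosiglitazone (50 nM final) for 17 h at 37 C; viability was then read by CellTiter-Glo luminescence after 30 min at room temperature.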

[3] = qHTS assay for small molecule agonists of the antioxidant response element (ARE) signaling pathway (AID 743202; active = well fitted activation curve with a large enough effect in the signal ratio in the repeat runs, not every such curve was filed as active; inconclusive = weak or mixed curves, or effect the other way; inactive = no such curve, though single readings can be large or run the other way; the % refers to the signal ratio; also: potency is read from the fitted curve at half-maximal effect); conditions: HepG2 ARE-bla reporter, beta-lactamase FRET, 16 h; activation: at 73.3 µM (top of the series) unless noted
How it was run: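 Read-out: LiveBLAzer B/G FRET substrate fluorescence after 2 h at room temperature, following 16 h compound treatment at 37 C of HepG2 cells carrying an ARE-driven beta-lactamase reporter.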

[4] = molecular target: Vitamin D3 receptor (Homo sapiens) (UniProt P11473); assay: qHTS assay to identify small molecule antagonists of the vitamin D receptor (VDR) signaling pathway (AID 743223; active = well fitted inhibition curve with a large enough effect in the signal ratio in the repeat runs, not every such curve was filed as active; inconclusive = weak or mixed curves, or effect the other way; inactive = no such curve, though single readings can be large or run the other way; the % refers to the signal ratio; also: % is scaled to controls: 0 for no effect and ±100 for the full control effect); conditions: VDR-UAS-bla HEK293T, beta-lactamase FRET ratio, 16 h
How it was run: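 Quantitative HTS in VDR-bla reporter cells stimulated with 1alpha,25-dihydroxyvitamin D3, 3 nM final. Compound exposure 16 h, 37C, 5% CO2. Read-out: beta-lactamase FRET substrate fluorescence, 2 h RT.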

[5] = qHTS assay for small molecule activators of the heat shock response signaling pathway - cell viability counter screen (AID 743209); conditions: HSE-bla HeLa viability, CellTiter-Glo luminescence, 5 h; activity change, negative = cytotoxicity: at 62.6 µM (top of the series) unless noted; also: potency is read from the fitted curve at half-maximal effect; nearly all actives have a fitted effect of over 50% in size
How it was run: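 First, HSE-bla HeLa cells were seeded at 1500 cells/well and kept overnight at 37 C. Next, compounds were pinned in and incubated 5 h. After the FRET substrate step, CellTiter-Glo was added and luminescence read 30 min later.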

[6] = qHTS assay to identify small molecule agonists of the peroxisome proliferator-activated receptor delta (PPARd) signaling pathway - cell viability counter screen (AID 743211); conditions: PPARd-bla HEK293H viability, CellTiter-Glo luminescence, 17 h; activity change, negative = cytotoxicity: at 62.6 µM (top of the series) unless noted; also: potency is read from the fitted curve at half-maximal effect; nearly all actives have a fitted effect of over 55% in size
How it was run: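 Tox21 library compounds, delivered in DMSO, were incubated 17 h with PPARd-bla HEK293H cells; cytotoxicity was taken from CellTiter-Glo luminescence read 30 min after reagent addition.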

[7] = molecular target: Peroxisome proliferator-activated receptor delta (Homo sapiens) (UniProt Q03181); assay: qHTS assay to identify small molecule agonists of the peroxisome proliferator-activated receptor delta (PPARd) signaling pathway (AID 743212; calls by dose curve; also: % is scaled to controls: 0 for no effect and ±100 for the full control effect); conditions: HEK293H PPARd-UAS-bla, beta-lactamase FRET ratio, 17 h; activation: at 62.6 µM (top of the series) unless noted
How it was run: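 GeneBLAzer PPARd UAS-bla HEK293H cells (beta-lactamase reporter under UAS control), plated and rested 5 h at 37 C, then exposed to compounds in DMSO at 37 C; LiveBLAzer B/G FRET substrate added, 2 h room temperature, fluorescence read.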

[8] = qHTS assay to identify small molecule antagonists of the peroxisome proliferator-activated receptor delta (PPARd) signaling pathway - cell viability counter screen (AID 743213); conditions: PPARd-bla HEK293H viability, CellTiter-Glo luminescence, 17 h; viability change, negative = cytotoxic: at 62 µM (top of the series) unless noted; also: potency is read from the fitted curve at half-maximal effect; nearly all actives have a fitted effect of over 50% in size
How it was run: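 Same-well viability: cells pre-incubated 5 h, dosed with compound plus 300 nM L165041, kept 17 h at 37 C, FRET substrate 2 h RT, then CellTiter-Glo 30 min RT and luminescence.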

[9] = molecular target: Peroxisome proliferator-activated receptor delta (Homo sapiens) (UniProt Q03181); assay: qHTS assay to identify small molecule antagonists of the peroxisome proliferator-activated receptor delta (PPARd) signaling pathway (AID 743215; active = well fitted inhibition curve with a large enough effect in the signal ratio in the repeat runs, not every such curve was filed as active; inconclusive = weak or mixed curves, or effect the other way; inactive = no such curve, though single readings can be large or run the other way; the % refers to the signal ratio;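 also: cells stimulated with agonist L165041 at 300 nM final during compound exposure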; also: potency is read from the fitted curve at half-maximal effect); conditions: HEK293H PPARd-UAS-bla, beta-lactamase FRET ratio, antagonist, 17 h; ratio activity, negative = inhibition: at 62 µM (top of the series) unless noted
How it was run: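 Inhibition of L165041-driven (300 nM final) PPARd signaling is scored in HEK293H UAS-bla cells. Exposure lasts 17 h at 37 C; beta-lactamase activity is then read by FRET substrate fluorescence after 2 h at room temperature.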

[10] = molecular target: Bile acid receptor (Homo sapiens) (UniProt Q96RI1); assay: qHTS assay to identify small molecule antagonists of the farnesoid-X-receptor (FXR) signaling pathway (AID 743217; active = well fitted inhibition curve with a large enough effect in the signal ratio in the repeat runs, not every such curve was filed as active; inconclusive = weak or mixed curves, or effect the other way; inactive = no such curve, though single readings can be large or run the other way; the % refers to the signal ratio; also: potency is read from the fitted curve at half-maximal effect); conditions: HEK293T FXR-UAS-bla, beta-lactamase ratio, CDCA-stimulated, 16 h; activity change, negative = inhibition: at 62.6 µM (top of the series) unless noted
How it was run: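 Antagonist mode against 50 uM (final) chenodeoxycholic acid stimulation in FXR-bla HEK 293T cells, 16 h at 37 °C. Inhibition detected as reduced beta-lactamase activity via LiveBLAzer B/G FRET fluorescence after 2 h at room temperature.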

[11] = qHTS assay to identify small molecule agonists of the farnesoid-X-receptor (FXR) signaling pathway - cell viability counter screen (AID 743218); conditions: FXR-bla HEK293T viability, CellTiter-Glo luminescence, 16 h; viability change, negative = cytotoxic: at 62.6 µM (top of the series) unless noted; also: potency is read from the fitted curve at half-maximal effect; nearly all actives have a fitted effect of over 45% in size
How it was run: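 Cytotoxicity counter-screen run in parallel, same wells: FXR-UAS-bla HEK 293T cells dosed 16 h at 37 C, viability read by CellTiter-Glo luminescence after 30 min at room temperature.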

[12] = qHTS assay to identify small molecule antagonists of the farnesoid-X-receptor (FXR) signaling pathway - cell viability counter screen (AID 743221; active = well fitted cell-killing curve with a large enough effect in the repeat runs, not every such curve was filed as active; inconclusive = weak or mixed curves, or effect the other way; inactive = no such curve, though single readings can be large or run the other way; also: potency is read from the fitted curve at half-maximal effect; nearly all actives have a fitted effect of over 50% in size); conditions: FXR-bla HEK293T viability, CellTiter-Glo luminescence, 16 h; activity change, negative = cytotoxicity: at 62.6 µM (top of the series) unless noted
How it was run: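 Cytotoxicity is taken from ATP luminescence (CellTiter-Glo, 30 min, room temperature) in FXR-bla HEK 293T cells previously incubated 16 h at 37 C with compound and chenodeoxycholic acid at 50 uM final.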

[13] = molecular target: Vitamin D3 receptor (Homo sapiens) (UniProt P11473); assay: qHTS assay to identify small molecule agonists of the vitamin D receptor (VDR) signaling pathway (AID 743222; calls by dose curve; also: potency is read from the fitted curve at half-maximal effect); conditions: HEK293T VDR-UAS-bla, beta-lactamase FRET ratio, 16 h; activation: at 63.5 µM (top of the series) unless noted
How it was run: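 Quantitative HTS agonist-mode screen: compounds in DMSO were pin-transferred onto VDR-bla cells and incubated 16 h at 37C, 5% CO2. Reporter activity was detected with LiveBLAzer B/G FRET substrate after 2 h at room temperature.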

[14] = qHTS assay for small molecule agonists of the antioxidant response element (ARE) signaling pathway - cell viability counter screen (AID 743203; calls by dose curve; also: potency is read from the fitted curve at half-maximal effect; nearly all actives have a fitted effect of over 55% in size); conditions: ARE-bla HepG2 viability, CellTiter-Glo luminescence, 16 h; viability change, negative = cytotoxic: at 73.3 µM (top of the series)
How it was run: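 Seeded at 2,000 cells/well, ARE-bla HepG2 cells were incubated 5 hrs before compound addition. After 16 hrs of treatment at 37C with 5% CO2, CellTiter-Glo reagent was added and luminescence read 30 min later.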

[15] = qHTS assay to identify small molecule agonists of the vitamin D receptor (VDR) signaling pathway - cell viability counter screen (AID 743224); conditions: VDR-bla HEK293T viability, CellTiter-Glo luminescence, 16 h; activity change, negative = cytotoxicity: at 62.6 µM (top of the series); also: potency is read from the fitted curve at half-maximal effect; nearly all actives have a fitted effect of over 50% in size
How it was run: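 Viability is measured in the same wells as the VDR-bla reporter assay: after 16 h compound treatment and 2 h substrate loading, CellTiter-Glo is added and luminescence read 30 min later.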

[16] = activity change, negative = inhibition: at 61 µM (top of the series) unless noted
Tags tell the direction and shape of the fitted curve or compound fluorescence and quenching.

UniProt Q03181, sequence (Q03181 whole entry, looked up): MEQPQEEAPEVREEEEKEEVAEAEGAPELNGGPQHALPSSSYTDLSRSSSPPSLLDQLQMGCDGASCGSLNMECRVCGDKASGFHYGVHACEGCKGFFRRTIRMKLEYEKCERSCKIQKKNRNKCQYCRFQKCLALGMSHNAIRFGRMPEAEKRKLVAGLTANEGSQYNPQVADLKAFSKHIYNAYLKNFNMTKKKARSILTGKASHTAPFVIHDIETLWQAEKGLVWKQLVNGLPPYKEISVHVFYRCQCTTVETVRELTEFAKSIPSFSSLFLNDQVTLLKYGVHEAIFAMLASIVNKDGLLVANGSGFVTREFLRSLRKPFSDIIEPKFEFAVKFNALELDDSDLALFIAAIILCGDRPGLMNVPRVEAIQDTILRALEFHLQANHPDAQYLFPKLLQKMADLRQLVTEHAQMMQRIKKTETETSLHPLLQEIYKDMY
UniProt Q96RI1, sequence (Q96RI1 whole entry, looked up): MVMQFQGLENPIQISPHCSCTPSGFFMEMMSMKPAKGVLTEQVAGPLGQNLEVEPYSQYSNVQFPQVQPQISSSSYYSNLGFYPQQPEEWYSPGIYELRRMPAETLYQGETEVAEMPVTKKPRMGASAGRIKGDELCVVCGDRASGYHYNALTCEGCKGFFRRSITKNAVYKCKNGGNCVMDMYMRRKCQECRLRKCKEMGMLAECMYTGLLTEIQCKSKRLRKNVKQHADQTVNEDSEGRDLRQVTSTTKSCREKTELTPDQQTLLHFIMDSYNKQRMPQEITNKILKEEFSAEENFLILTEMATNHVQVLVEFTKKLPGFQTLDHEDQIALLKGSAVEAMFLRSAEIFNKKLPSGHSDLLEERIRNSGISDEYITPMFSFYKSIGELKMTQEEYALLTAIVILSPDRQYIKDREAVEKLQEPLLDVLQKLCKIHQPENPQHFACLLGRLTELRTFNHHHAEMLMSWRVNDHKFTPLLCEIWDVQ
UniProt P37231, sequence (P37231 whole entry, looked up): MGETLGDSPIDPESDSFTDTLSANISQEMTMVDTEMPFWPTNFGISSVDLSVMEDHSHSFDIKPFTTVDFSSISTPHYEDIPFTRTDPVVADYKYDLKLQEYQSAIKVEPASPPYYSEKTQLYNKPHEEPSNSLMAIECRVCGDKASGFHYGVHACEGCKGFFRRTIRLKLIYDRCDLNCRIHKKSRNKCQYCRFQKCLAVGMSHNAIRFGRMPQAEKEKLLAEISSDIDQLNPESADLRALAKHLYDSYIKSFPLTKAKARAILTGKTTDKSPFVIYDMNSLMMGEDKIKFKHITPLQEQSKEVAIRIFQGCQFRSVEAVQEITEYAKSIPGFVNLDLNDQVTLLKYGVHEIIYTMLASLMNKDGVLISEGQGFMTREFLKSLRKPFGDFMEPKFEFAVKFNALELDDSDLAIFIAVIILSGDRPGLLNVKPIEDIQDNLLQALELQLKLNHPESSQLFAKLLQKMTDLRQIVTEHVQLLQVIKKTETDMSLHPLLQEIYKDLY
UniProt P11473, sequence (P11473 whole entry, looked up): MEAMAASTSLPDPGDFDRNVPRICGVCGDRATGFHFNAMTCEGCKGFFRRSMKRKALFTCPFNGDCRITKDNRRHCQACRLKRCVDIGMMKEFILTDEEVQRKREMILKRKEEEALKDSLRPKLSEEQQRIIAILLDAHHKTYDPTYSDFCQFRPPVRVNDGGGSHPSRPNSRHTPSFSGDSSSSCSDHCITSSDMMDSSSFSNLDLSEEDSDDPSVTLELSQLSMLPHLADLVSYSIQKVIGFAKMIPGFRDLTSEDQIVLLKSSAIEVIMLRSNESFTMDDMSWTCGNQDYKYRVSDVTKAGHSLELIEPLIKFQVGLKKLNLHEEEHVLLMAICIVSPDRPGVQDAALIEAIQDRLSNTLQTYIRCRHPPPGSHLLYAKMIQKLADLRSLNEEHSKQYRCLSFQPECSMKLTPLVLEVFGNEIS

With `CCC1CO1` (configuration not stated) the ratio activity, negative = inhibition [1] was inconclusive: -15% and the activity change, negative = cytotoxicity [2] was inconclusive: 3.72%.
In the case of `C=COCC(C)C`, the Potency [1] is reported as “inactive”, the Potency [2] is reported as inconclusive: 9.53 µM [cytotoxic, full curve, poor fit] and the Potency [3] is reported as “inactive”. The Potency [4, 16] was “inactive”.
In the case of `CCCCCCOC(=O)NC(=N)c1ccc(NCc2nc3cc(C(=O)N(CCC(=O)OCC)c4ccccn4)ccc3n2C)cc1`, the Potency [1] is reported as active: 29.8 µM, the Potency [2] is reported as active: 13.3 µM and the Potency [3] is reported as inconclusive: 33.5 µM. The Potency [5] was inconclusive: 3.76 µM [cytotoxic, partial curve, poor fit], the Potency [6] was active: 21.1 µM and the activation [7] was inconclusive: -9.72%. The Potency [8] was active: 23.7 µM, the Potency [9] was inconclusive: 18.8 µM [partial curve] and the Potency [10] was inconclusive: 33.5 µM [single point]. For the same compound, the Potency [11] was active: 26.6 µM, the Potency [12] was inconclusive: 33.5 µM [falling, single point] and the Potency [13] was inconclusive: 29.8 µM [fluorescent, partial curve].
In the case of `O=C(O)CCCCCCCC(=O)O`, the Potency [1] is reported as “inactive”, the Potency [2] is reported as inconclusive: 54.7 µM [cytotoxic, single point] and the Potency [3] is reported as “inactive”. The activity change, negative = inhibition [4, 16] was inconclusive: 20.1% and the activity change, negative = inhibition ([4]; at 61 µM (top of the series)) was inactive: -7.31% and inactive: 3.85%.
For `CC(C)(C)CC(C)(C)c1ccc(O)c(-n2nc3ccccc3n2)c1`, the Potency [1] was inconclusive: 22.2 µM [activator, single point] and inconclusive: 29.8 µM [activator], the Potency [2] was inconclusive: 54.9 µM [cytotoxic, partial curve, poor fit] and the Potency [14] was inconclusive: 55.3 µM [cytotoxic, partial curve, poor fit]. For the same compound, the Potency [6] was active: 49.7 µM and active: 49 µM and inconclusive: 33.5 µM [cytotoxic, single point], the ratio activity, negative = inhibition [9] was inconclusive: 2.32% and the Potency [10] was inconclusive: 17.6 µM [inhibitor, partial curve] and inconclusive: 29.8 µM. The activity change, negative = inhibition [10] was inconclusive: -37.5%, the activation [13] was inconclusive: 0.646% [at 81.1 µM] and the Potency [15] was inconclusive: 22.2 µM [cytotoxic, single point].
